In patent publication US12582644B2, “O-GlcNAc transferase inhibitors and uses thereof” (President and Fellows of Harvard College, priority 2018, dated 2026):
Values belong to the compound of their own block, whether it stands above or below them.

Key:
full length OGT = molecular target: T1, full length OGT (Homo sapiens, UniProt O15294); assay: Dissociation constants by microscale thermophoresis (MST); conditions: for Kd: Binding affinity (Kd ± s.d.), binding of compounds to OGT; for Kd compared with 2a and 4a: comparison in words
T1 sequence (O15294 1-1046): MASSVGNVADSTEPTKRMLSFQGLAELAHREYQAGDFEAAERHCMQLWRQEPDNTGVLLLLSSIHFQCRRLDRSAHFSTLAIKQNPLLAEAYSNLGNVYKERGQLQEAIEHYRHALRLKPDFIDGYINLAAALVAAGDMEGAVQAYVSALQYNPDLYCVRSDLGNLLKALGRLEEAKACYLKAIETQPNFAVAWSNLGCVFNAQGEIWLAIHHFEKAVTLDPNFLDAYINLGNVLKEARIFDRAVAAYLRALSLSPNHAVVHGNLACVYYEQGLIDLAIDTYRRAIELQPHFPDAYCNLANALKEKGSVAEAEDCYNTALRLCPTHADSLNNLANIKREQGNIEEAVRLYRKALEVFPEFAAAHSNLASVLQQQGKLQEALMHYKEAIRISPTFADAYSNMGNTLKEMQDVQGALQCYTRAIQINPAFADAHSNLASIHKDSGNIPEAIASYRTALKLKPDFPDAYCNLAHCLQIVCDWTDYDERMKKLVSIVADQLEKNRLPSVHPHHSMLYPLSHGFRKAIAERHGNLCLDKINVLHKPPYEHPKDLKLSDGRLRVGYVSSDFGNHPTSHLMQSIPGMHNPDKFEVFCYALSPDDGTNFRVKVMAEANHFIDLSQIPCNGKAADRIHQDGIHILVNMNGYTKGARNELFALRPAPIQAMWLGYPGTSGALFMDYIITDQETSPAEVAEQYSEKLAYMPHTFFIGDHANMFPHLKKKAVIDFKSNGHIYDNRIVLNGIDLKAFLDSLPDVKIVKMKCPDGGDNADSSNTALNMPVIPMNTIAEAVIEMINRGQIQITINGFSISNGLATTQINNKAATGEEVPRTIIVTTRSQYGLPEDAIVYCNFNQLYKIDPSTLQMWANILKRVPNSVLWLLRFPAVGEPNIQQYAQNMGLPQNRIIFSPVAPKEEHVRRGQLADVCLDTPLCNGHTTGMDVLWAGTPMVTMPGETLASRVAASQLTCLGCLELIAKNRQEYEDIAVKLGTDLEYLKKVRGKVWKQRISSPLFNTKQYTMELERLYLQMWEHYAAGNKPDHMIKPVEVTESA

[1] = tested on: global O-GlcNAcylation in HEK293T cells; assay: Western blotting for global O-GlcNAc levels in HEK293T cells; type: cell-based; conditions: for protein O-GlcNAcylation: 20 μM, from 2 hours (FIG. 13E)
[2] = tested on: global O-GlcNAcylation in HCT116 cells; assay: Western blotting for global O-GlcNAc levels in HCT116 cells; type: cell-based
[3] = tested on: HCF-1 cleavage in HEK293T cells; assay: HCF-1 cleavage in HEK293T cells (Western blotting); type: cell-based; conditions: 20 μM
Excerpt: In addition to glycosylating Ser/Thr residues of proteins, OGT catalyzes cleavage of the cell-cycle regulator HCF-1 by glycosylating a glutamate in the HCF-1 cleavage sequence.^4c,7 An OGT inhibitor would be expected to block cleavage. Indeed, a decrease in HCF-1 cleavage products and the appearance of uncleaved HCF-1 in cells treated with 1b, 2b or 4b was observed (FIGS. 2E, 16). Because OGT knockdown is known to decrease cell proliferation,^8 the effects of 1b, 2b, and 4b on cell growth in culture over 96 hours were also monitored. Although there was no evidence of apoptosis, reduced growth of cells was observed over time (FIG. 17), consistent with the knockdown results.

HCT116 cells = assay: Cell viability and live-cell imaging (IncuCyte confluence, CellTiter-Glo); type: cell-based; conditions: HCT116, 96 hours, 10 or 40 μM
Description: (§1) HCT116 cells were plated into 384-well plate one day prior to treatment with compounds (300 cells per well). Compounds were dispensed using a D300e Digital Dispenser (Tecan). Cells were imaged every 3 hours using an IncuCyte ZOOM instrument (Sartorius) to generate growth curves. After four days of treatment, cell viability was assessed using the CellTiter-Glo® Luminescent Cell Viability Assay (Promega). Luminescence signal was recorded using the GloMax® Explorer System (Promega). For Cytotoxicity, HEK293T cells were plated into a 96-well plate two days prior to treatment with compounds at 80% confluency. The number of dead cells were assessed by CellTox™ Green Cytotoxicity Assay (Promega).

HEK293T cells [4] = assay: CellTox Green Cytotoxicity Assay; type: cell-based; conditions: 24 hours, 0-50 μM
Description: as §1

[5] = tested on: OGT's detained intron (intron 4) in HEK293T cells; assay: Quantitative PCR of OGT detained intron splicing; type: cell-based; conditions: 10 μM, 2-hour treatment
Description: Total RNA was harvested directly from tissue culture plates using Trizol (Life Technologies) according to the manufacturer's directions. In all experiments, total RNA was treated with Turbo DNase (Life Technologies) to remove any residual DNA contamination, extracted in acid-buffered phenol/chloroform, and ethanol-precipitated. Reverse transcription was performed using 2 μg of DNase-treated total RNA in a 20 μL reaction following the manufacturer's protocol (SuperScript III, Life Technologies) for 1 h at 50° C. cDNA reactions were […] diluted 1:10, and 1 μL was used in each PCR reaction. Real-time qRT-PCR was performed using PowerUp SYBR Green (Life Technologies) on a StepOne-Plus Real-Time PCR System (Applied Biosystems).

HEK293T cells [6] = assay: Quantitative proteomics / protein abundance in HEK293T cells; conditions: 4b, 24 hr

SMILES: CCOC(=O)CCCOc1ccccc1[C@H](NS(=O)(=O)c1ccc2[nH]c(=O)ccc2c1)C(=O)N(CC(=O)OCC)Cc1cccs1 [ent-2b, Ethyl (S)-4-(2-(2-((2-ethoxy-2-oxoethyl)(thiophen-2-ylmethyl)amino)-2-oxo-1-((2-oxo-1,2-dihydroquinoline)-6-sulfonamido)ethyl)phenoxy)butanoate]
protein O-GlcNAcylation ([1]; HEK293T): no effect

SMILES: COC(=O)CCCCOc1ccccc1[C@@H](NS(=O)(=O)c1ccc2[nH]c(=O)ccc2c1)C(=O)N(CC(=O)OC)Cc1cccs1 [3b, Methyl (R)-5-(2-(2-((2-methoxy-2-oxoethyl)(thiophen-2-ylmethyl)amino)-2-oxo-1-((2-oxo-1,2-dihydroquinoline)-6-sulfonamido)ethyl)phenoxy)pentanoate]
O-GlcNAc levels, comparison of inhibitors ([1]; HEK293T, 20 μM (1b, 2b, 3b) or 50 μM (2b, 3b) (FIG. 13A)): 1b and 2b are more effective than 3b
O-GlcNAc levels, dose dependence ([2]; HCT116, 20-80 μM, 4 hours or 24 hours): dose dependent decreases in O-GlcNAc levels

SMILES: CCOC(=O)CN(Cc1cccs1)C(=O)[C@H](NS(=O)(=O)c1cc2ccc(=O)[nH]c2cc1Cl)c1ccccc1OC [4b, Ethyl (R)—N-(2-((7-chloro-2-oxo-1,2-dihydroquinoline)-6-sulfonamido)-2-(2-methoxyphenyl)acetyl)-N-(thiophen-2-ylmethyl)glycinate]
ability to inhibit global O-GlcNAcylation, ranking ([1]; HCT116, HEK293T, PC3, and LNCaP cells): best activity
global O-GlcNAc levels, 4b compared with 2b ([1]; HEK293T, 24 hours, 20 or 50 μM (FIG. 15A)): greater reductions in O-GlcNAc levels
O-GlcNAc levels, dose dependence ([1]; HEK293T, 24 hours, effects from 5 μM (FIG. 15C)): dose dependent decrease in O-GlcNAc levels
EC50 ([1]; Homo sapiens, HEK-293T, HEK293T, 24 hours, densitometry of Western blot corrected for actin, read-out: EC50 in cells (% O-GlcNAc levels relative to untreated control)): ~3000 nM
O-GlcNAc levels ([1]; by 5 μM (FIGS. 2B, 15)): reducing O-GlcNAc levels almost completely
global O-GlcNAc levels, comparison with 1b ([2]; HCT116, 24-hour treatment, 20 μM (FIG. 15B)): more effective than 1b
HCF-1 cleavage, 4b compared with 2b ([3]; 24 hours): more effective at reducing HCF-1 cleavage
HCF-1 cleavage ([3]; 48 hours): blocked HCF-1 cleavage
cell growth (HCT116 cells): reduced cell growth compared with the control
cytotoxic cell death (HEK293T cells [4]): did not result in cytotoxic cell death
detained intron splicing of OGT transcript [5]: increased detained intron splicing
number of proteins that changed significantly (HEK293T cells [6]): 86

SMILES: COC(=O)CN(Cc1cccs1)C(=O)[C@@H](NS(=O)(=O)c1ccc2[nH]c(=O)ccc2c1)c1ccccc1OC [ent-1b, Methyl (S)—N-(2-(2-methoxyphenyl)-2-((2-oxo-1,2-dihydroquinoline)-6-sulfonamido)acetyl)-N-(thiophen-2-ylmethyl)glycinate]
protein O-GlcNAcylation ([1]; HEK293T): no effect

Further lines, results first:

Kd (full length OGT): 4100 ± 3000 nM
SMILES: COc1ccccc1[C@H](NS(=O)(=O)c1ccc2[nH]c(=O)ccc2c1)C(=O)N(CC(=O)O)Cc1cccs1 [ent-1a, (S)—N-(2-(2-methoxyphenyl)-2-((2-oxo-1,2-dihydroquinoline)-6-sulfonamido)acetyl)-N-(thiophen-2-ylmethyl)glycine]

Kd (full length OGT): 5 ± 1 nM
SMILES: O=C(O)CCCOc1ccccc1[C@@H](NS(=O)(=O)c1ccc2[nH]c(=O)ccc2c1)C(=O)N(CC(=O)O)Cc1cccs1 [2a, (R)-4-(2-(2-((carboxymethyl)(thiophen-2-ylmethyl)amino)-2-oxo-1-((2-oxo-1,2-dihydroquinoline)-6-sulfonamido)ethyl)phenoxy)butanoic acid]

Kd (full length OGT): 140 ± 50 nM
SMILES: O=C(O)CCCOc1ccccc1[C@H](NS(=O)(=O)c1ccc2[nH]c(=O)ccc2c1)C(=O)N(CC(=O)O)Cc1cccs1 [ent-2a, (S)-4-(2-(2-((carboxymethyl)(thiophen-2-ylmethyl)amino)-2-oxo-1-((2-oxo-1,2-dihydroquinoline)-6-sulfonamido)ethyl)phenoxy)butanoic acid]

Kd (full length OGT): 140 ± 60 nM
Kd compared with 2a and 4a (full length OGT): an order of magnitude or more higher
SMILES: COc1ccccc1[C@@H](NS(=O)(=O)c1ccc2[nH]c(=O)ccc2c1)C(=O)N(CC(=O)O)Cc1cccs1 [1a, (R)—N-(2-(2-methoxyphenyl)-2-((2-oxo-1,2-dihydroquinoline)-6-sulfonamido)acetyl)-N-(thiophen-2-ylmethyl)glycine]

Kd (full length OGT): 45 ± 20 nM
Kd compared with 2a and 4a (full length OGT): an order of magnitude or more higher
SMILES: O=C(O)CCCCOc1ccccc1[C@@H](NS(=O)(=O)c1ccc2[nH]c(=O)ccc2c1)C(=O)N(CC(=O)O)Cc1cccs1 [3a, (R)-5-(2-(2-((carboxymethyl)(thiophen-2-ylmethyl)amino)-2-oxo-1-((2-oxo-1,2-dihydroquinoline)-6-sulfonamido)ethyl)phenoxy)pentanoic acid]
